# In patent US20230172961A1 (priority 2020, published 2023):
# Molecular target: SARS-CoV-2 RdRp complex (nsp12/nsp7/nsp8) (Severe acute respiratory syndrome coronavirus 2, UniProt P0DTD1)
# Assay: Inhibition of SARS-CoV-2 RdRp complex catalyzed reaction by NS5A inhibitors
# Type: biochemical
# Conditions: 3 µM UTP, 1 µM RdRp complex, increasing inhibitor concentration
smiles,measurement,value
COC[C@H]1C[C@@H](c2nc(-c3ccc4c(c3)COc3cc5c(ccc6nc([C@@H]7CC[C@H](C)N7C(=O)[C@@H](NC(=O)OC)C(C)C)[nH]c65)cc3-4)c[nH]2)N(C(=O)[C@H](NC(=O)OC)c2ccccc2)C1 [Velpatasvir],reduction of the U extended RNA product peak,"reduce the amount of the U extended RNA product peak, though not to the same extent as Daclatasvir"
